The source of these data is PubChem BioAssay AID463173 (ICCB-Longwood Screening Facility, Harvard Medical School, 2010).

Out of some 52,000 compounds screened, about 4,300 (8.3%) were called active. Rule as the data show it: active = survival mostly below about 52% (no sharp cut-off); inactive = mostly above about 56%. The list shows a part of the results.

The test system of the test is DeltatarO mutant. Kind of test: growth inhibition of S. aureus wild type versus tarO mutant, primary screen, teichoic acid synthesis inhibitors, RN4220, OD600 (AID 463173). The note with it: OD600, 18 h, stronger effect = lower value, screened at 18.75 µg/mL (by protocol).
Regarding `CCc1nn(CC(=O)NCC(C)c2ccccc2)c(=O)c2cc3c(OC)cccc3n12` (stereo not drawn), the survival was inactive: 82%.
Consider `COC(=O)c1ccccc1NC(=O)C1CCCN(C(=O)c2cnn(-c3ccc(F)cc3)c2-n2cccc2)C1` (stereo not drawn), for which the survival was inactive: 93%.
With `COCCn1c(=O)[nH]c2cc(C(=O)N3CCN(c4ccc(F)cc4)CC3)ccc2c1=O` the figure was inactive: 70%.
Regarding `c1ccc2c(-n3cccn3)cccc2c1`, the survival is inactive: 94%.
On to `Oc1c(C(c2cccc(Cl)c2)N2CCOCC2)sc2nc(-c3ccco3)nn12` (stereo not drawn), for which the survival was inactive: 84%.
With `CCN1c2ccccc2-c2nc(SCC(=O)Nc3cc(C)c(Cl)cc3OC)ncc2S1(=O)=O`, the survival is inactive: 91%.
For the compound `O=S(=O)(c1ccc(S(=O)(=O)N(Cc2cccs2)C2CCCCC2)cc1)N1CCCC1`, the survival is inactive: 91%.
For the compound `COc1ccc(CCNC(=O)c2c3c(nc4ccccc24)C(=O)N(C2CCCCC2)C3)cc1OC`, the survival was inactive: 103%.
Turning to `O=C(COc1ccc(F)cc1)NCc1ccc2c(c1)CCN2C(=O)c1ccc(F)cc1`, the survival was inactive: 70%.
The result for `O=C1CC(=O)N(Cc2cccs2)C(=O)N1` reads inactive: 77%.
The result for `O=C(Nc1ccc(F)c(Cl)c1)C1CCN(c2ncccn2)CC1` reads inactive: 63%; that for `O=C(Nc1ccccn1)NC12CC3CC(CC(C3)C1)C2`, inactive: 106%.
On to `C1=C(c2cccs2)OC(c2cccs2)=CC1c1cccs1`, for which the survival is inactive: 52%.
Regarding `Cc1ccc(-n2ncc3c(N4CCN(Cc5ccccc5)CC4)ncnc32)cc1C`, the survival is inactive: 88%.
On to `N#C/C(=C\c1ccc(-c2ccc(Br)cc2)o1)C(=O)Nc1ccccc1O`, for which the survival was inactive: 70%.
As to `Cc1oc(-c2ccccc2F)nc1Cn1c(SCc2cccc(Cl)c2)nc2ccncc21`, the survival is inactive: 60%.
The result for `CCOCCc1nn2c(=O)cc(COC(=O)c3ccccc3Br)nc2s1` reads inactive: 87%; that for `CCOC(=O)C1(CCSC)NC(c2cccs2)C2C(=O)N(CC)C(=O)C21` (stereo not drawn), inactive: 90%.
Turning to `O=C(NCCc1csc(-c2ccc(C(F)(F)F)cc2)n1)c1ccccc1Cl`, the survival was inactive: 96%.
In the case of `Cn1c(=O)n(C)c2cc(CNCc3ccc(F)cc3)ccc21`, the survival is inactive: 92%.
With `Cc1ccc(C(=O)N2CCc3cc(CNC(=O)c4ccccc4F)ccc32)cc1` the figure was inactive: 77%; with `Cc1c(NC(=O)Nc2ccccc2C(F)(F)F)c(=O)n(-c2ccccc2)n1C`, inactive: 92%; with `CCOc1ccc(C2=C(C(C)=O)Sc3nnc(C)n3N2C(C)=O)cc1`, inactive: 89%.
The result for `Cc1cc(C)cc(-n2c(SCC(=O)Nc3ccccc3F)nc3c(oc4ccccc43)c2=O)c1` reads inactive: 70%; that for `Cc1ccc(Cn2cnc3nc4c(cc3c2=O)CCCC4)cc1`, inactive: 81%; that for `CCOc1ccc(NC(=O)c2cccc3c(=O)c4c([nH]c23)CCCC4)cc1`, inactive: 68%.
For the compound `O=C(CS(=O)(=O)c1ccc(Cl)cc1)Nc1nc2ccc(Br)cc2s1`, the survival is inactive: 54%.
With `COc1ccc(CCNC(=O)CCN2N=C(c3ccccc3)CCC2=O)cc1OC` the figure was inactive: 84%; with `Cc1ccc(NC(=O)N(Cc2c[nH]c3ccccc23)C2CCCCCC2)cc1C`, inactive: 56%.
The result for `O=C(OCCN1CCOCC1)c1ccccc1` reads inactive: 88%.
The result for `COc1ccc(CCNC(=O)Cc2c(C)c3ccc(O)c(C)c3oc2=O)cc1OC` reads inactive: 63%.
On to `O=c1n(Cc2ccc([N+](=O)[O-])cc2)c2ccccc2c2nc(-c3ccccc3)nn12`, for which the survival was inactive: 129%.
With `CSc1ccc(CCNC(=O)CN2C(=O)COc3ccc(S(=O)(=O)N4CCCC4)cc32)cc1` the figure was inactive: 112%.
Consider `CCOc1ccc(NC(=O)c2cnn3c2NC(c2ccccc2)=CC3c2cccc(OC)c2OC)cc1` (stereo not drawn), for which the survival is inactive: 62%.
As to `Clc1ccc(-c2nnn3c2nc(N2CCCCC2)c2ccccc23)cc1`, the survival was active: 25%.
On to `CCc1ccc(NC(=O)C2(c3cccs3)CCOCC2)cc1`, for which the survival is inactive: 73%.
`Cc1oc2ncn(CC(C)C)c(=O)c2c1C(=O)N1CCN(c2ccccc2F)CC1`: the survival was inactive: 67%.
Turning to `OC1CCNC(=S)N1c1ccccc1` (stereo not drawn), the survival is inactive: 78%.
Regarding `Cc1cc(C)c(NC(=O)CN(c2ccccc2)S(=O)(=O)N(C)C)c(C)c1`, the survival was inactive: 66%.
For `Cc1ccc(-c2noc(CN(C(=O)c3ccc(C(C)(C)C)cc3)C(C)C)n2)cc1`, the survival is active: -4%.
`O=S(=O)(c1ccccc1)n1nc(-c2ccc(Cl)cc2)nc1NCc1ccc(F)cc1`: the survival was inactive: 53%.
In the case of `COc1ccc(N2CCN(CC(=O)N(C)C)CC2)cc1`, the survival was inactive: 75%.
For the compound `COc1cccc(NC(=O)Cn2c(=O)c3cccn3c3ccc(F)cc32)c1`, the survival was inactive: 76%.
Consider `CCOC(=O)c1ccccc1NC(=O)CN(c1cc(C(F)(F)F)ccc1Cl)S(C)(=O)=O`, for which the survival was inactive: 65%.
The result for `CCCCSCCCNC(=O)c1cn(CC)c2ccc(S(=O)(=O)N(C)C3CCCCC3)cc2c1=O` reads active: 24%.
With `COc1cccc(-c2nc(SCC(=O)NCc3ccccc3)c3c(=O)n(C)c(=O)n(C)c3n2)c1` the figure was inactive: 99%; with `O=C(Cn1ccc2cc(S(=O)(=O)N3CCCCCC3)ccc21)NCCc1ccccc1Cl`, inactive: 88%.
Take `Cc1ccc(CCNC(=O)CCS(=O)(=O)c2ccc3c(c2)oc(=O)n3C)cc1`: the survival was inactive: 86%.
The result for `COc1cccc(N2CCN(S(=O)(=O)c3ccc(-c4cc(C(F)(F)F)on4)s3)CC2)c1` reads inactive: 95%; that for `Cc1ccccc1-n1c(=O)c2ccccc2n(Cc2ccc(F)cc2)c1=O`, inactive: 88%.
Regarding `CCOC(=O)c1cnc2c(Cl)c(Cl)ccc2c1Nc1ccc(N(C)C)cc1`, the survival was inactive: 80%.
In the case of `COC(=O)c1sc2cccc(F)c2c1S(=O)(=O)NCc1ccc(F)cc1`, the survival was inactive: 103%.
Take `COc1ccc(C2CC(=O)N(Cc3cccc(C)c3)c3c2c(C)nn3-c2nc(C)cc(C)n2)c(OC)c1` (stereo not drawn): the survival is inactive: 73%.
Consider `COc1ccc(-n2c(=O)c3c4c(sc3n(Cc3c(F)cccc3Cl)c2=O)CN(C(C)=O)CC4)cc1OC`, for which the survival was inactive: 99%.
The result for `Fc1cccc(F)c1CSc1nc2ccccc2[nH]1` reads inactive: 97%.
As to `O=C(Nc1ccc(F)cc1)c1ncn(-c2ccccc2)n1`, the survival was inactive: 86%.
As for `CCOc1ccccc1NC(=O)Cn1c(=O)n(-c2ccc(C)c(C)c2)c(=O)c2c(C)c(C(=O)N(C)C)sc21`, the survival was inactive: 106%.
With `CC(OC(=O)c1cccs1)C(=O)NCC1CCCO1` (stereo not drawn), the survival was inactive: 85%.
